# Whole data set: some 33,000 sequences, median “E-score (-0.5 to 0.5)” near -0.035, cut for the highest 2% near 0.35. Some of the results follow.
# Biological target: T1, Pdr3 (UniProt P33200)
# T1 sequence: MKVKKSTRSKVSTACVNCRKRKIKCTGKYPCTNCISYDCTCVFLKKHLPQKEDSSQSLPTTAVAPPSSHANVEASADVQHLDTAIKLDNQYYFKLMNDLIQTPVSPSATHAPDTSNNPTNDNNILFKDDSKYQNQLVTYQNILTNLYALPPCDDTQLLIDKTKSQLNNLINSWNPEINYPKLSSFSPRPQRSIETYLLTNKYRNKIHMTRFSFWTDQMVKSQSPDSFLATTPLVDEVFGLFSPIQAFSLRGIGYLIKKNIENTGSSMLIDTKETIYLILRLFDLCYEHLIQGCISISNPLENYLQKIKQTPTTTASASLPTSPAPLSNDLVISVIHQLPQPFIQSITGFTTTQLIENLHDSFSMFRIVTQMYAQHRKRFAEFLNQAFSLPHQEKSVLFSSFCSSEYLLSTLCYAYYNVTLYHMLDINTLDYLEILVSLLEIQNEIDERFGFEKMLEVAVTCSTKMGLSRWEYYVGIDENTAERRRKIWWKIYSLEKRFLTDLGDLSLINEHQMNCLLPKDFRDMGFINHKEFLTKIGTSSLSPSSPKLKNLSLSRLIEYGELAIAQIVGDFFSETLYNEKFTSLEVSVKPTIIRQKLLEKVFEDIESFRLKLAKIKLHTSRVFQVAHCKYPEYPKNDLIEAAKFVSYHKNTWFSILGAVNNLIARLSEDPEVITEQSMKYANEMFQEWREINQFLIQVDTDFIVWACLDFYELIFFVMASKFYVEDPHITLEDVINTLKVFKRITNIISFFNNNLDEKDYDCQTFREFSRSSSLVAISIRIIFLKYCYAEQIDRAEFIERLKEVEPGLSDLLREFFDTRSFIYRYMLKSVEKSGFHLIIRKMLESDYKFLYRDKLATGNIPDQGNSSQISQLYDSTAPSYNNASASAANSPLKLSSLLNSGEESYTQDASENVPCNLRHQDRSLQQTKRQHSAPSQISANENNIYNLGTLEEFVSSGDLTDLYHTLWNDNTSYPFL
# Assay: PBM E-score (8-mer binding enrichment) (E-score (-0.5 to 0.5)); higher = stronger / more preferred TF binding; most listed sequences are background and not binding sites
# Settings: protein concentration: 200 nM; construct: GST-full length
# How it was run: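 Universal all-10-mer Agilent arrays, double-stranded by primer extension on fresh or once-stripped slides, were probed with about 100-200 nM GST-tagged yeast transcription factors made by PURExpress. Fluorescent anti-GST detected bound protein, and masliner normalised the scans. E-scores from the Universal PBM Analysis Suite were given to each ungapped eight-base word pooled with its reverse complement.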
row,Sequence,PBM E-score
1,CTAAGAAG,-0.0671
2,CAAACCCA,0.0119
3,GAGCGACC,-0.0396
4,CACTCCCG,0.197
5,CGGACAAG,0.265
6,CTCTCTGC,-0.0361
7,ACCCACGT,-0.0848
8,AAACGGTA,0.172
9,ATCGTTGA,-0.0121
10,AGCATTAG,-0.0829
11,ATCGTCAA,-0.0359
12,CACCTTAG,-0.142
13,ACGGACTC,0.205
14,GCAACCCC,0.0189
15,ACTGAGAA,-0.121
16,ATGACGAG,-0.0951
17,ATAAATGG,-0.0765
18,CGGGATTA,0.404
19,ACATTTAT,-0.248
20,GCTCTTTA,0.0466
21,AAAGGTCG,-0.167
22,CTTACGTC,-0.169
23,TCATTAAA,0.179
24,TCTTAAAA,-0.203
25,CTTAGTAA,-0.0875

row,Sequence,PBM E-score
1,GTTATGGA,-0.00256
2,ACTGTAGG,0.0131
3,ACGAAGGA,-0.0865
4,ACTCTACA,-0.229
5,AGCACGCT,-0.243
6,CACTCCGA,0.102
7,TCCATGCA,0.162
8,AGTGCTTG,-0.0454
9,CGAATGTC,0.0506
10,ATTTGCCG,0.192
11,CTCTCCTA,-0.146
12,AACATACG,0.103
13,AATGCCCG,0.166
14,AAGCACCA,-0.219
15,ACCAATAG,-0.165
16,CCTCTGCC,-0.208
17,GGACGCGA,0.11
18,AGCTGTAT,-0.135
19,ACCTTACC,0.0407
20,TAGCAACA,-0.0337
21,CCGCTAGC,0.0214
22,CGAGTTTC,0.0626
23,ACGGCGTG,0.123
24,AGTGGTTG,-0.00222
25,GAAGGACC,0.0543

row,Sequence,PBM E-score
1,GAATAGCC,0.0215
2,AACAGCGA,-0.127
3,ATGAACAA,-0.0432
4,AATAGGCA,0.0167
5,GAGGCTAC,-0.163
6,CTTGACAA,-0.0603
7,GAGGCGAA,0.0545
8,CGAGGGTC,-0.0181
9,ATGTGGGA,0.0287
10,AATTTGCG,0.0706
11,GCTGTACA,-0.21
12,GAACATTC,0.156
13,CACTGGAA,-0.107
14,GACAAGCA,-0.145
15,ATTCTTTC,0.0556
16,GAGCGAGA,0.147
17,AAGCTCGT,-0.158
18,ACTGGAAA,-0.0455
19,GGCCTGAC,0.0978
20,ACATTAGG,-0.236
21,ACGCCTCT,-0.283
22,CGCCGATA,0.17
23,ACCGAAGC,-0.0758
24,ATCGCGCG,0.275
25,ACGAAGGC,-0.144

row,Sequence,PBM E-score
1,CGAGCCTC,-0.00318
2,CCGCAGGA,0.189
3,ACAGAAGT,-0.285
4,ATCGATCA,-0.0371
5,TCACCTGA,-0.145
6,GCCAGCCC,-0.12
7,CCATGGAC,0.107
8,CCGTAAAC,0.112
9,AGGCGACC,0.0795
10,GATCATCA,-0.185
11,ACGTGTTG,-0.123
12,CGTCCCAG,-0.126
13,GTAGGCCA,-0.118
14,AGATGCTC,0.0282
15,CAGTGGCG,0.0262
16,CTCGCAGC,0.0906
17,CGACATAA,0.00859
18,ACCGATGG,-0.0565
19,AGCTATAC,-0.169
20,GAAGTTGC,-0.205
21,CCCAACGA,-0.0918
22,ACCTTAGT,-0.174
23,GACGACTC,-0.0464
24,TAAGCAGA,-0.00543
25,CCAACGCA,-0.0458

row,Sequence,PBM E-score
1,AGTCGGCG,0.125
2,GAAGTTTA,0.0761
3,ACTCGTGC,-0.0451
4,GAGGGATC,-0.0055
5,ATGGCTCA,-0.247
6,AATGTCCT,-0.115
7,AGGTACTC,-0.133
8,ACCTGCGG,0.181
9,CGCATGCC,0.224
10,CACGATCA,-0.0924
11,AGCTGAAA,0.0997
12,AGGACTCA,-0.298
13,AACCTGAC,-0.164
14,AGACCTCA,-0.203
15,AACAGGAT,-0.138
16,GGGCCAAC,0.0579
17,CTTTGGCA,-0.198
18,AAAAGGAA,0.0494
19,GACTCTGC,-0.0756
20,GGAATGTA,0.339
21,CTACCTAA,-0.111
22,AGCTGGAC,-0.145
23,AAAACTAC,0.179
24,CATGGCTC,-0.0277
25,GGTCAAAA,-0.0928

row,Sequence,PBM E-score
1,CCCAGGGC,-0.142
2,CATGTGAA,-0.102
3,CCAATGTC,-0.165
4,ACCGGACC,0.297
5,GCTACTTA,-0.383
6,ACTAACGG,0.208
7,ATGGCGTA,-0.0752
8,GATAACAA,0.0187
9,GAAGACTA,-0.133
10,GATGGCCC,0.0774
11,ACCGACCT,0.00582
12,CTCCACGC,-0.165
13,CCCTAGTA,-0.0527
14,CATGGTGA,-0.149
15,GCGTCCCC,-0.159
16,AGGGTGGC,-0.099
17,CGCTCGAG,0.0754
18,CTACTCCA,-0.162
19,GACTGAGA,-0.16
20,ACTCGCCT,-0.0619
21,GGACGCAC,0.0958
22,GTAGAATA,-0.017
23,TCCACGCA,-0.174
24,ACGTGACG,-0.0262
25,CTAGCAAC,-0.0643

row,Sequence,PBM E-score
1,CACGGAAA,0.449
2,ATCACAAT,-0.0706
3,TAGATGGA,-0.233
4,GAGTCCGC,0.248
5,AAGCCAGA,-0.0207
6,AACCTAAT,-0.0203
7,ACTACCGA,-0.0714
8,ATTCCGCG,0.479
9,AATATGAA,0.146
10,CTGCCTGA,0.0159
11,CAGCTCGG,0.255
12,ACACGAAT,0.0887
13,GTATCGGA,0.326
14,AATTCAAA,-0.121
15,ACCAAGGG,-0.172
16,GGGTGTAA,-0.0157
17,AGGGTGCC,-0.244
18,GGTCGCGA,0.201
19,ATAGTCAA,-0.151
20,GTGACATA,0.0765
21,CTCCAGAG,-0.0543
22,CCTCCTAG,-0.0995
